Assay results published in paper PMC8793873.
Results are given in words; binding and its absence hold for the method and conditions named. In cells and extracts the contact can be indirect. Some entries that bind do so weakly or less than the wild type. Tags and fused reporters may be left off the sequences shown.

T1: FBN1a fused to a half of a fluorescent protein (BiFC) (Arabidopsis thaliana) (UniProt O81439)
T1 sequence: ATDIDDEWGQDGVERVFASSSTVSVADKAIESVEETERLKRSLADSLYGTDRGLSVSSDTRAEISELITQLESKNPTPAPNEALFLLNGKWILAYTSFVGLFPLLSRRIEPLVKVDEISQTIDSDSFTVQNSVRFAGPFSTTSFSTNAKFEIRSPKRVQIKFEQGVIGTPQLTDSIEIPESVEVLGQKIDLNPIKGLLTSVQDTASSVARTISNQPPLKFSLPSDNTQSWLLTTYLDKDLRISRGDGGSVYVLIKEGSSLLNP

T2: FBN2 fused to a half of a fluorescent protein (BiFC) (Arabidopsis thaliana) (UniProt O82291)
T2 sequence: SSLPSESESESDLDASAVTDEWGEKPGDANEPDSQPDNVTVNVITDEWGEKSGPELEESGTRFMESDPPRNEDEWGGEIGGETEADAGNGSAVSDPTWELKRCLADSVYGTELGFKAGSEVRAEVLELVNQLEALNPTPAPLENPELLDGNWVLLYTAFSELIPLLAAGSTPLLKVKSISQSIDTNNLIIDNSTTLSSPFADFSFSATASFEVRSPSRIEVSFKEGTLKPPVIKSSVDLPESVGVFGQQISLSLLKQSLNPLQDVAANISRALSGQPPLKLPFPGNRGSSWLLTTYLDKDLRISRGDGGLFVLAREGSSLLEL

T3: FBN1b fused to a half of a fluorescent protein (BiFC) (Arabidopsis thaliana) (UniProt O49629)
T3 sequence: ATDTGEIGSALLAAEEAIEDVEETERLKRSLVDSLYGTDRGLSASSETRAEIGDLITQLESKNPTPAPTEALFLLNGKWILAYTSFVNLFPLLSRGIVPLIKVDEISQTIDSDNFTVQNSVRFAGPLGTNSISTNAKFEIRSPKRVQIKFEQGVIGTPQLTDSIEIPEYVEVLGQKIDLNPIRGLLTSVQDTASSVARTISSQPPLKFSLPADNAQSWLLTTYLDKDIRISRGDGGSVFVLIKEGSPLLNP


Assays:
Experiment in all cases: split reporter; BiFC: fusions to the N-terminal half of YFP and the C-terminal moiety of CFP, transiently co-expressed in N. benthamiana leaves; confocal microscopy of mesophyll cells
[1] = biological target: T1, FBN1a fused to a half of a fluorescent protein (BiFC) (Arabidopsis thaliana)
[2] = biological target: T2, FBN2 fused to a half of a fluorescent protein (BiFC) (Arabidopsis thaliana)
[3] = biological target: T3, FBN1b fused to a half of a fluorescent protein (BiFC) (Arabidopsis thaliana)

Row | binding [1] | binding [2] | binding [3] | Binder
1 | binds | binds | binds | Allene oxide synthase (AOS) fused to the C-terminal moiety of CFP (BiFC) (enzyme, UniProt Q96242 34-518) SGSETPDLTVATRTGSKDLPIRNIPGNYGLPIVGPIKDRWDYFYDQGAEEFFKSRIRKYNSTVYRVNMPPGAFIAENPQVVALLDGKSFPVLFDVDKVEKKDLFTGTYMPSTELTGGYRILSYLDPSEPKHEKLKNLLFFLLKSSRNRIFPEFQATYSELFDSLEKELSLKGKADFGGSSDGTAFNFLARAFYGTNPADTKLKADAPGLITKWVLFNLHPLLSIGLPRVIEEPLIHTFSLPPALVKSDYQRLYEFFLESAGEILVEADKLGISREEATHNLLFATCFNTWGGMKILFPNMVKRIGRAGHQVHNRLAEEIRSVIKSNGGELTMGAIEKMELTKSVVYECLRFEPPVTAQYGRAKKDLVIESHDAAFKVKAGEMLYGYQPLATRDPKIFDRADEFVPERFVGEEGEKLLRHVLWSNGPETETPTVGNKQCAGKDFVVLVARLFVIEIFRRYDSFDIEVGTSPLGSSVNFSSLRKASF
2 |  | binds |  | FBN1b fused to a half of a fluorescent protein (BiFC) (protein, UniProt O49629 60-310) ATDTGEIGSALLAAEEAIEDVEETERLKRSLVDSLYGTDRGLSASSETRAEIGDLITQLESKNPTPAPTEALFLLNGKWILAYTSFVNLFPLLSRGIVPLIKVDEISQTIDSDNFTVQNSVRFAGPLGTNSISTNAKFEIRSPKRVQIKFEQGVIGTPQLTDSIEIPEYVEVLGQKIDLNPIRGLLTSVQDTASSVARTISSQPPLKFSLPADNAQSWLLTTYLDKDIRISRGDGGSVFVLIKEGSPLLNP
3 |  | binds |  | FBN2 fused to a half of a fluorescent protein (BiFC) (protein, UniProt O82291 54-376) SSLPSESESESDLDASAVTDEWGEKPGDANEPDSQPDNVTVNVITDEWGEKSGPELEESGTRFMESDPPRNEDEWGGEIGGETEADAGNGSAVSDPTWELKRCLADSVYGTELGFKAGSEVRAEVLELVNQLEALNPTPAPLENPELLDGNWVLLYTAFSELIPLLAAGSTPLLKVKSISQSIDTNNLIIDNSTTLSSPFADFSFSATASFEVRSPSRIEVSFKEGTLKPPVIKSSVDLPESVGVFGQQISLSLLKQSLNPLQDVAANISRALSGQPPLKLPFPGNRGSSWLLTTYLDKDLRISRGDGGLFVLAREGSSLLEL
4 |  | binds |  | FBN1a fused to a half of a fluorescent protein (BiFC) (protein, UniProt O81439 56-318) ATDIDDEWGQDGVERVFASSSTVSVADKAIESVEETERLKRSLADSLYGTDRGLSVSSDTRAEISELITQLESKNPTPAPNEALFLLNGKWILAYTSFVGLFPLLSRRIEPLVKVDEISQTIDSDSFTVQNSVRFAGPFSTTSFSTNAKFEIRSPKRVQIKFEQGVIGTPQLTDSIEIPESVEVLGQKIDLNPIKGLLTSVQDTASSVARTISNQPPLKFSLPSDNTQSWLLTTYLDKDLRISRGDGGSVYVLIKEGSSLLNP
5 | no binding | no binding |  | FBN4 fused to the C-terminal moiety of CFP (BiFC) (protein, UniProt Q9LW57 73-284) SSSGSGGDDKQIALLKLKLLSVVSGLNRGLVASVDDLERAEVAAKELETAGGPVDLTDDLDKLQGKWRLLYSSAFSSRSLGGSRPGLPTGRLIPVTLGQVFQRIDVFSKDFDNIAEVELGAPWPFPPLEATATLAHKFELLGTCKIKITFEKTTVKTSGNLSQIPPFDIPRLPDSFRPSSNPGTGDFEVTYVDDTMRITRGDRGELRVFVIA
